According to PubChem BioAssay AID504706 (National Center for Advancing Translational Sciences (NCATS), 2011):
Out of some 320,000 compounds screened, about 200 (0.062%) were called active. This list was built around the results that the source calls inconclusive (neither active nor inactive); the mix of calls is not that of the screen. The call rests on the fitted dose curve; in most records, active means well fitted activation curve with a large enough effect; inconclusive means small, poorly fitted or top-dose-only effect; inactive means no such curve, though single readings can be large or run the other way. Potencies of inconclusive entries are left out as doubtful fits.
Potency means the concentration at half of the fitted maximal effect; tags describe the fitted curve by direction and shape.

Test: qHTS assay for re-activators of p53 using a Luc reporter; further: nearly all actives have a fitted effect of over 45% in size; on activity change, positive = activation: % of control where 0% means no effect
Conditions: H1299 p53-A138V BP100-luciferase reporter, luminescence, 24 h; series mostly up to 92.2 µM; activity change, positive = activation: at the top concentration
In short: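 H1299 (p53-null), stable ts p53-A138V + BP100-Luc; 1000 cells/well, Opti-MEM/10% FBS; cpd 4 pt, 1:5; 24 h, 37 deg C, 5% CO2; detection reagent 10 min RT; luminescence.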
With `CCCn1cnc2cc(NCc3cccc(OC)c3O)ccc21` the Potency was inconclusive [activator, full curve, poor fit].
For `COc1cccc(C2C(C#N)=C(N)Oc3c2oc(CO)cc3=O)c1OC` (stereo not drawn), the Potency was inconclusive [activator, partial curve, poor fit].
In the case of `CCCCOc1ccc(-c2nc(-c3cccnc3)no2)cc1`, the Potency was inconclusive [activator, full curve, poor fit].
For `O=C(O)c1cc(N/N=C/c2ccc(N3CCOCC3)s2)ccc1Cl`, the Potency was inconclusive [activator, full curve, poor fit].
With `Cc1ccc(NC(=O)c2noc3c2CCc2ccccc2-3)cc1` the “activity change, positive = activation” value was inactive: 15.4%.
With `CC1(C)Cc2c(c(N3CCOCC3)nc3sc4c(NN)ncnc4c23)CS1` the Potency was inconclusive [activator, partial curve, poor fit].
In the case of `COc1cc(/C=N/Nc2nc3ccccc3s2)ccc1O`, the Potency was inconclusive [activator, full curve, poor fit].
In the case of `COc1ccccc1N(C)S(=O)(=O)c1ccc(Cl)c(C(=O)NNC(=O)c2ccccc2O)c1`, the “activity change, positive = activation” value was inactive: 19%.
In the case of `Nc1ccccc1SCc1cn2ccccc2n1`, the Potency was inconclusive [activator, partial curve, poor fit].
In the case of `COc1ccc(-c2cc(-c3ccc(OC)c(OC)c3)n[nH]2)c(O)c1`, the Potency was inconclusive [activator, full curve, poor fit].
With `Cc1cccc(-n2ncc3c(N4CCCc5ccccc54)ncnc32)c1` the Potency was inconclusive [activator, partial curve, poor fit].
With `CCCCC(=O)OCc1nc2ccccc2s1` the Potency was inconclusive [activator, single point].
With `CC(C)CCn1nnnc1C(c1ccc(F)cc1)N1CCN(C(=O)c2ccco2)CC1` (stereo not drawn) the “activity change, positive = activation” value was inactive: 1.08%.
For `O=C(Cc1cccs1)Nc1ccc(F)cc1F`, the “activity change, positive = activation” value was inactive: 19.7%.
For `CCCCc1nnc(NC(=O)C2=COCCO2)s1`, the Potency was inconclusive [activator, single point].
In the case of `CCOC(=O)CCCn1ncn2c(cc3occc32)c1=O`, the Potency was inconclusive [activator, single point].
For `C[C@]12CC[C@@H]3c4ccc(O)cc4CC[C@H]3[C@@H]1CC[C@@H]2O`, the “activity change, positive = activation” value was inactive: 8.61%.
With `COCCCNC(=O)c1ccc(N2CCCC2)c(NS(=O)(=O)c2ccc(C)cc2)c1` the Potency was inconclusive [activator, partial curve, poor fit].
In the case of `O=C(OCc1csc(Nc2ccccc2)n1)c1ccc(Cl)cc1`, the Potency was inconclusive [activator, single point].
In the case of `CCC(C(=O)OCC(=O)c1ccc(OC)cc1OC)c1ccccc1` (stereo not drawn), the Potency was inconclusive [activator, single point].
With `N#C/C(=C\c1ccc(OCc2ccc(C(=O)O)cc2)cc1)C(=O)N1CCOCC1` the “activity change, positive = activation” value was inactive: 10.8%.
In the case of `CN(C)c1nc2ccccc2c(N)c1-c1ccccc1`, the “activity change, positive = activation” value was inactive: 9.46%.
In the case of `CCC(C)c1ccc(NC(=O)C2CC2)cc1` (stereo not drawn), the Potency was inconclusive [activator, full curve, poor fit].
In the case of `O=C(OCc1ccco1)c1ccc(S(=O)(=O)N2CCCCC2)cc1`, the Potency was inconclusive [activator, single point].
For `CCC(=O)Nc1sc(C(=O)Nc2ccccc2F)c(C)c1C(=O)OC`, the “activity change, positive = activation” value was inactive: 0.657%.
With `O=c1cc(N2CCCCC2)c(-c2ccccc2)nn1Cc1ccc(Cl)cc1Cl` the Potency was inconclusive [activator, single point].
In the case of `S=c1[nH]nc(-c2ccncc2)n1/N=C/c1ccccc1`, the Potency was inconclusive [activator, single point].
In the case of `COc1ccc(S(=O)(=O)NC2CC(C)(C)NC(C)(C)C2)c2ccccc12`, the Potency was inconclusive [activator, partial curve, poor fit].
In the case of `O=C(Cc1cccc(C(F)(F)F)c1)Nc1cccc(S(=O)(=O)N2CCCC2)c1`, the “activity change, positive = activation” value was inactive: 4.35%.
With `Cc1cccc(NC(=O)NC(C)CCc2ccccc2)c1` (stereo not drawn) the Potency was inconclusive [activator, partial curve, poor fit].
For `CC(C)n1cc(NC(=O)c2cc(-c3ccccc3)on2)cn1`, the Potency was inconclusive [activator, partial curve, poor fit].
With `O=C(CCc1ccccc1)Nc1ccc2c(c1)OCCO2` the Potency was inconclusive [activator, partial curve, poor fit].
With `O=C(Nc1ccc(N2CCCC2)cc1)c1cccc(Cl)c1Cl` the Potency was inconclusive [activator, partial curve, poor fit].
In the case of `COc1ccc(OC)c(-c2csc(NC(=O)Cc3ccccc3F)n2)c1`, the Potency was inconclusive [activator, single point].
For `O=C(COc1ccc(F)cc1)Nc1nccs1`, the Potency was inconclusive [activator, partial curve, poor fit].
With `Cc1cc(N(C)C)ccc1N=Nc1ccc2ncccc2c1` the Potency was inconclusive [activator, full curve].
In the case of `C#CC(C)(CC)NC(=O)Cn1nnc(-c2ccc(S(C)(=O)=O)cc2)n1` (stereo not drawn), the Potency was inconclusive [activator, partial curve, poor fit].
For `COc1ccc(-c2cn(-c3ccc(OC)cc3)c(=S)[nH]2)cc1`, the Potency was inconclusive [activator, partial curve, poor fit].
In the case of `c1ccc(CN2CCCC3(CCCN(Cc4nc(CC5CC5)no4)C3)C2)cc1` (stereo not drawn), the “activity change, positive = activation” value was inactive: 0.209%.
With `O=C(CCn1cnc(-c2ccccc2)c1-c1ccccc1)N/N=C/c1ccccc1O` the Potency was inconclusive [activator, single point].
With `CCC(NC(=O)c1ccccc1NC(=O)c1ccccc1)C(=O)NNC(=O)c1cccnc1` (stereo not drawn) the “activity change, positive = activation” value was inactive: -0.77%.
In the case of `Cc1ccc(-c2cc(C(=O)N3CCCC(C(F)(F)F)C3)c3ccccc3n2)o1` (stereo not drawn), the “activity change, positive = activation” value was inactive: 3.59%.
In the case of `CCOc1ccccc1CN1CCC(n2nccc2NC(=O)C2CCCC2)CC1`, the Potency was inconclusive [activator, single point].
In the case of `O=C(Nc1cccnc1)c1cnn2cccnc12`, the “activity change, positive = activation” value was inactive: 8.63%.
In the case of `CCOC(=O)c1ccc(Nc2nc(C(=O)OCC)nc3ccccc23)cc1`, the “activity change, positive = activation” value was inactive: -1.92%.
In the case of `Cn1ccnc1Sc1nc2ccccc2nc1NS(=O)(=O)c1ccccc1`, the Potency was inconclusive [activator, single point].
In the case of `CCC(=O)Nc1cccc(-n2nnnc2SCC(=O)c2ccc(C)c(C)c2)c1`, the Potency was inconclusive [activator, partial curve, poor fit].
In the case of `O=C(CSc1ccccc1)Nc1ccc2c(c1)OCCO2`, the Potency was inconclusive [activator, partial curve, poor fit].
For `O=[N+]([O-])c1ccccc1N/N=C\c1ccccc1F`, the Potency was inconclusive [activator, full curve, poor fit].
In the case of `Cc1ccc(S(=O)(=O)N2CCOCC2)cc1C(=O)N(C)CCOc1ccc(Cl)cc1`, the “activity change, positive = activation” value was inactive: -4.67%.
For `Cn1c(=O)c(-c2ccccc2N)nc2ccccc21`, the Potency was inconclusive [activator, full curve, poor fit].
In the case of `Cc1cc(C(=O)CSc2ncccn2)c(C)n1-c1cccc(F)c1`, the Potency was inconclusive [activator, partial curve, poor fit].
For `COc1ccc(NC(=O)N2CCCC(C(=O)NCCc3ccccc3)C2)cc1` (stereo not drawn), the “activity change, positive = activation” value was inactive: 16.5%.
In the case of `CC(C)c1ccc(NC(=S)NCc2cccs2)cc1`, the Potency was inconclusive [activator, full curve, poor fit].
In the case of `CCOc1ccc(NC(=O)c2csc3c2CCCC3)cc1`, the Potency was inconclusive [activator, partial curve, poor fit].
For `CCOC(=O)C1CCN(Cc2ccc(OCc3ccccc3)c(OC)c2)CC1`, the Potency was inconclusive [activator, partial curve, poor fit].
For `CCC(=O)NC(=Nc1nc2ccccc2s1)NC(=O)CC`, the Potency was inconclusive [activator, full curve, poor fit].
For `CS(=O)(=O)c1ccc2nc(NC(=O)c3ccco3)sc2c1`, the Potency was inconclusive [activator, full curve, poor fit].
With `COc1ccccc1C(=O)OCC(=O)NC(=O)NC1CCCC1` the “activity change, positive = activation” value was inactive: 9.18%.
For `O=C(c1ccccc1F)N1CCN(c2ccc([N+](=O)[O-])c3cccnc23)CC1`, the “activity change, positive = activation” value was inactive: -4.27%.
In the case of `C=C[C@@H]1c2ccccc2N(S(=O)(=O)c2ccc(C)cc2)[C@H](c2ccccc2)C1(C#N)C#N`, the Potency was inconclusive [activator, partial curve, poor fit].
For `Cc1ccc(C)c(OCc2cc(C(=O)N3CC[C@H](O)C3)no2)c1`, the “activity change, positive = activation” value was inactive: 23.4%.
In the case of `Cc1ccnc(N=O)c1`, the Potency was inconclusive [activator, partial curve, poor fit].
In the case of `COc1cc(OC)cc(C(=O)NC(C(=O)Nc2ccc3c(c2)OCCO3)C(C)C)c1` (stereo not drawn), the Potency was inconclusive [activator, partial curve, poor fit].
In the case of `COc1ccc2nc(NC(=O)c3cccnc3SC)sc2c1`, the Potency was inconclusive [activator, partial curve, poor fit].
For `O=C(c1cccc(F)c1)N1CCN(c2cc(N3CCCCC3)c(F)cc2[N+](=O)[O-])CC1`, the “activity change, positive = activation” value was inactive: -2.28%.
For `C/C(=N\NC(=O)c1ccc([N+](=O)[O-])cc1)c1cc2ccccc2oc1=O`, the Potency was inconclusive [activator, partial curve, poor fit].
For `COc1cccc(C(=O)Nc2nnc(-c3ccccc3)s2)c1`, the Potency was inconclusive [activator, full curve, poor fit].
